Values joined by “and” are separate entries in the source; they are usually repeats but may differ in a detail not shown here. Equal entries are not always repeated.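 Briefly, cells in 96-well plates were exposed to five compound concentrations for 48 h, and endpoints were estimated by linear interpolation. GI50 is the concentration that inhibits growth by half. TGI: total growth inhibition.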
Test system: NCI-H322M lung
Assay: growth of human tumour cells (NCI), 48 h

Compound	GI50	TGI
CNC(=O)c1nn(C)c2c1C(C)(C)Cc1cnc(Nc3ccc(N4CCN(C)CC4)cc3)nc1-2	0.431 µM	> 10 µM
O=c1c2cc(Br)ccc2nc(CCl)n1-c1ccc(O)c([N+](=O)[O-])c1	–	30.3 µM
Cc1ccc(/C=C2\Cc3c(C)cc(C)cc3C2=O)c(C(=O)O)c1	–	> 100 µM
CC(C(=O)O)C(C)(O)C(=O)O (centres undefined)	–	> 100 µM
O=C(N/N=C/c1cccc(F)c1)c1ccncc1	–	> 100 µM
Cc1ccc(-c2nc3nc(-c4ccc(F)cc4)nc(N4CCCNCC4)c3o2)cc1	1.61 µM	2.96 µM
O=[N+]([O-])c1ccc(Sc2c3ccccc3nc3cc(Cl)ccc23)cc1	> 100 µM	> 100 µM
O=c1c(F)cn(Cc2ccccc2CCl)c(=O)n1Cc1ccccc1CCl	2.49 µM	7.11 µM
O=C(N[C@@H](C[Se][Se]C[C@H](NC(=O)c1ccc(Br)cc1F)C(=O)O)C(=O)O)c1ccc(Br)cc1F	> 100 µM	> 100 µM
O=C(/C=C/c1ccccc1)c1ccc(NCc2nc3ccccc3[nH]2)cc1	–	24.6 µM
COC(=O)[C@H](Cc1ccccc1)NC(=O)CCCCCCC(=O)NO	–	> 100 µM
CCCCN(CC)CC(C(C)=O)c1c(O)c2ccccc2oc1=O (centres undefined)	–	> 100 µM
CN(C)C(=S)/N=c1\ssc(=S)n1Cc1ccncc1	–	> 100 µM
COc1cc2c(cc1OC)C(C(=O)c1cccc(OC)c1OC)C(=O)N(C)CC2 (centres undefined)	–	> 100 µM
Oc1ccccc1-c1nn(CNc2ccccc2Cl)c(=S)o1	> 100 µM	> 100 µM
CN1CCN(c2cc3nsnc3c3nsnc23)CC1	–	> 10 µM
Cc1ccc(C2=CC(=O)/C(=C\C(=O)c3ccc(Cl)cc3)O2)cc1	–	> 100 µM
CCCCN(CCCC)C(=O)/C(CC(=O)c1cccc2ccccc12)=N\NC(=O)c1cc2ccccc2cc1O	–	> 100 µM
CCOC(=O)c1cc2c3c(c(O)c(OC)c2s1)N(C(=O)c1cc2c4c(c(O)c(OC)c2s1)N(C(C)=O)CC4)CC3	–	> 100 µM
Cn1cc(C2=C(c3cn(C4CCN(Cc5ccccn5)CC4)c4ccccc34)C(=O)NC2=O)c2ccccc21	> 100 µM	> 100 µM
COc1cc(NC(C)=O)ccc1C(=O)NN1C(=O)/C(=C/c2ccco2)N=C1c1ccccc1	–	> 50 µM

Compound	GI50	TGI
C[n+]1c(-c2ccc(/C=C/C=N\NC(=O)c3ccc(C(=O)N/N=C\C=C\c4ccc(-c5cn6ccccc6[n+]5C)cc4)cc3)cc2)cn2ccccc21	–	> 100 µM
N#Cc1nc(C2CCC2)oc1N	–	> 100 µM
[O-]/[N+](=C\c1ccccc1OC(=S)S)c1ccc(Cl)cc1	–	> 100 µM
Cc1ccccc1C(=O)N1CCN(C(=O)c2ccccc2C)CC1	–	> 100 µM
CC(=O)c1cnc2oc3ccc(O)cc3c2c1-c1ccccc1	–	> 100 µM
CCCCCCCCCCCCCCCC[N+]1(C)CCOCC1	4.53 µM	19 µM
CCOC(=O)NC(=O)c1cn(CCN2CCN(C(=O)CCCCCCCCCCC(=O)N3CCN(CCn4cc(C(=O)NC(=O)OCC)c(=O)[nH]c4=O)CC3)CC2)c(=O)[nH]c1=O	–	> 100 µM
COC(=O)C1(C(=O)OC)CC(=O)c2cc3c(cc2-c2c(cc(OC)c(OC)c2OC)C1)OCO3	–	> 211 µM
CCON1CC(C(=O)OC)=C(O)C1=O	–	> 100 µM
O=[N+]([O-])c1ccc(-c2ccc(-c3csc(Nc4ccccc4)n3)o2)cc1	–	> 100 µM
CC1(C)CC2C(=O)c3ccccc3NC2c2ccccc21 (centres undefined)	–	> 100 µM
CC(=O)OCc1c(O)c2c(c(O)c1COC(C)=O)C(=O)C=CC2=O	–	40.9 µM
CC(=O)OC(Cn1cncn1)(Cn1cncn1)c1ccc(Cl)cc1Cl	–	> 100 µM
CCCCn1c(-c2ccc(C(=O)O/N=C(\N)c3ccc4c(c3)OCO4)cc2)nc(-c2ccccc2)c1-c1ccccc1	5.22 µM	> 100 µM
COc1ccc(NC(=S)NC(=O)c2ccc3c(c2)Sc2ccccc2O3)c([N+](=O)[O-])c1	–	> 100 µM
CSC(=NCCc1c[nH]c2ccccc12)NC#N	–	> 100 µM
CC(C)(C)c1cc(C(=O)/C=C/c2ccc3c(c2)OCO3)cc(C(C)(C)C)c1O	–	> 100 µM
O=C1OCC2=C1C(c1ccccc1)c1cc3c(cc1N2CCO)OCO3 (centres undefined)	16 µM	> 50 µM
O=C1CCCCN1CCCCC#Cc1cccc(C#Cc2cccnc2)c1	> 100 µM	> 100 µM
COc1cc(NCCCCCCCNC(C)C)c2nccc(C)c2c1	15.1 µM	29.3 µM
COc1c(O)c2c(=O)cc(OC)c3c4c(OC)cc(=O)c5c(O)c(OC)c6c(c(c1C(C(C)O)C6C(C)O)c23)c54 (centres undefined)	–	7.33 µM

Compound	GI50	TGI
C=C1C(=O)O[C@H]2[C@H]1CC/C(COC(=O)NCC(C)c1ccc(CC(C)C)cc1)=C\CC[C@@]1(C)O[C@@H]21 (some centres undefined)	5.15 µM	10.1 µM
CC(=O)OC1CCC2C3CCc4c(C)ccc(OS(=O)(=O)c5ccccc5)c4C3CCC12C (centres undefined)	–	> 100 µM
O=S(=O)(CCCl)c1ccc(Cl)cc1	16.3 µM	31.8 µM
Nc1nn2c(=O)c3ccccc3nc2s1	–	> 100 µM
CCCSc1nc(-c2ccc(OC)cc2)c(C#N)c(=O)n1C1OC(COC(C)=O)C(OC(C)=O)C(OC(C)=O)C1OC(C)=O (centres undefined)	> 100 µM and 20.9 µM	> 100 µM and 56.9 µM
CCOC(=O)/C=C(\C(=O)OCC)n1ccc(=O)n(Cc2cn(COCCOC(C)=O)nn2)c1=O	–	> 100 µM
COc1cc2c(c(O)c1OC)C(=O)C(Cc1ccc(O)cc1)CO2 (centres undefined)	–	> 100 µM
N#CNC(N)=Nc1ccc(Cl)cc1	–	> 100 µM
NS(=O)(=O)c1cccc(NC(=S)NC(=O)Nc2ccc(Cl)c(Cl)c2)c1	–	> 100 µM
COc1cc2c(cc1OC)-c1cc3ccccc3c(=O)n1CC2	–	> 100 µM
O=c1[nH]c(Nc2cccc(CO)c2)nc2nc[nH]c12	–	> 100 µM
Cn1c2ccccc2c(=O)c2c(O)cc3c(c21)C=CC1(CCCCC1)O3	–	> 10 µM
CC(C)(C)C(=O)[CH-]C(=O)C(C)(C)C.CC(C)(C)C(=O)[CH-]C(=O)C(C)(C)C.CN(C)c1ccc([O-])cc1.CN(C)c1ccc([O-])cc1.[Ti+4]	74.8 µM	> 100 µM
O=c1oc2ccccc2[n+]([O-])c1-c1ccccc1	–	> 100 µM
Cc1ccc(NC(=O)c2cc(S(=O)(=O)N3C(=O)NC(=O)NS3(=O)=O)c(S)cc2Cl)cc1	26.5 µM	75.2 µM
CCOC(=O)c1nc2cc(C(F)(F)F)ccc2nc1Nc1ccc(C(=O)NC(C(=O)OCC)C(=O)OCC)cc1	–	> 100 µM
C\C(=N/N=C1/C(=C\N(C)C)C(=O)NC(=O)N1C)c1ccc(Cl)cc1	–	> 100 µM
COc1ccc2c(c1)/C(=C/c1cc(OC)c(OC)c(OC)c1)C(=O)N2	1.53 µM	> 100 µM
COC1CC(OC2CCC3(C)C(=CCC4C3C(OC(C)=O)C(OC(=O)CC(C)C)C3(C)C(C(C)=O)CCC43O)C2)OC(C)C1OC1CC(OC)C(OC2CC(OC)C(OC3OC(C)C(OC4OC(CO)C(O)C(O)C4O)C(OC)C3O)C(C)O2)C(C)O1 (centres undefined)	–	> 75 µM
Nc1ccc(/C=C/C(=O)NCc2cc3cc(-c4ccc(C(=O)N5CCC(F)(F)CC5)cc4)cc(-c4ccc(F)cc4)c3o2)cn1	> 100 µM	> 100 µM
Cc1c2ccccc2cc2ccc3oc([N+](=O)[O-])cc3c12	–	> 100 µM

Compound	GI50	TGI
CC(=O)/C(=C/c1ccccc1F)C(=O)c1ccccc1	–	> 100 µM
CCOC(=O)C1CCC(=O)N1C(=O)c1ccccc1 (centres undefined)	–	> 100 µM
c1ccc(N2N=C(c3ccco3)CC2c2ccco2)cc1 (centres undefined)	–	> 100 µM
CCOC(=O)/C(O)=C1\C(=O)N(C)C(=O)C1c1cccc(OC)c1 (centres undefined)	–	> 100 µM
O=C(Nc1noc(-c2ccccc2)n1)c1ccccc1CNc1noc(-c2ccccc2)n1	–	> 100 µM
CNC(=O)CCCNC(=O)CCCC(=O)N(C)C	–	> 100 µM
COc1cc(/C=C/C=C2\CC/C(=C\C=C\c3ccc(O)c(OC)c3)C2=O)ccc1O	–	> 100 µM
CC(C)(C)OC(=O)NCCCCCCCn1c2c(c3ccccc3c1=O)C(=O)c1ccccc1-2	> 100 µM	> 100 µM
O=S(=O)(NCCCNc1nccc(-c2c(-c3ccc(F)cc3)nc3sccn23)n1)c1ccc2ccccc2c1	> 100 µM	> 100 µM
CO[C@@H]1O[C@H](C(=O)c2ccccc2)[C@H]2OC(C)(C)O[C@@H]12	–	> 100 µM
NC(=O)N/N=C1\CC2C3CC4C2C4C13 (centres undefined)	–	> 100 µM
COc1ccc(CN2C3CC2CN(c2ccc(-c4cc(OCC(C)(C)O)cn5ncc(C#N)c45)cn2)C3)cn1	> 100 µM	> 100 µM
Cc1cc(I)cc(CN(C)CCCN2CCCC2)c1O	28.3 µM	> 78.7 µM
C/C(=N\NC(=O)CC#N)c1c(O)cc(C)oc1=O	–	> 100 µM
COC1=C(C)C(=O)c2c(c(COC(N)=O)c3n2CC(OC(C)=O)C3OC(C)=O)C1=O (centres undefined)	–	2.74 µM
Nc1ncnc2c1ncn2CC(O)CO (centres undefined)	–	> 100 µM
CSC(=S)N/N=C/c1nccc2ccccc12	–	63.8 µM
O=C(O)[C@@H](Cc1ccc2ccccc2c1)NC(=O)n1c2ccccc2c2ccccc21	5.68 µM	> 100 µM
COc1ccc(/C(=N\NC(=S)NN)C(c2ccc(OC)cc2)C2C(=O)Oc3ccccc32)cc1 (centres undefined)	> 100 µM	> 100 µM
O=C(C(Cl)=C(N1CCOCC1)N1CCOCC1)C(Cl)Cl	–	> 100 µM
O=C1c2ccccc2NC(=S)[C@@H]2CCCN12	–	> 100 µM

Reference: PubChem BioAssay (NCI)
